Laboratory results from the antibiotic and cytotoxicity screens of Wong et al. (2023).
Some of the results follow.

Columns and labels:
[1] = test system: HSkMC (human skeletal muscle cells); assay: cytotoxicity call (relative viability < 0.9); conditions: 10 µM
[2] = test system: HepG2; assay: cytotoxicity call (relative viability < 0.9); conditions: 10 µM
[3] = test system: S. aureus RN4220; assay: growth inhibition call (relative growth <= 0.2); conditions: 50 µM

C[C@@H]1CN([C@H](C)CO)C(=O)c2cc(C#CCN(C)C)cnc2O[C@@H]1CN(C)C(=O)CN1CCOCC1
cytotoxicity call [1]: inactive
cytotoxicity call [2]: inactive
growth inhibition call [3]: inactive

C[C@H](CO)N1C[C@H](C)[C@H](CN(C)S(=O)(=O)c2ccc(F)cc2)Oc2ncc(C#Cc3ccccc3)cc2C1=O
cytotoxicity call [1]: inactive
cytotoxicity call [2]: inactive
growth inhibition call [3]: inactive

C[C@@H]1CN([C@@H](C)CO)C(=O)c2cccc(NC(=O)Nc3ccccc3)c2O[C@H]1CN(C)C(=O)Nc1cccc2ccccc12
cytotoxicity call [1]: inactive
cytotoxicity call [2]: inactive
growth inhibition call [3]: inactive

Cc1noc(C)c1S(=O)(=O)Nc1ccc2c(c1)C(=O)N([C@H](C)CO)C[C@H](C)[C@H](CN(C)C(=O)NC(C)C)O2
cytotoxicity call [1]: inactive
cytotoxicity call [2]: inactive
growth inhibition call [3]: inactive

Cc1cc(C(=O)Nc2cccc3c2O[C@H](CN(C)S(=O)(=O)c2ccccc2)[C@@H](C)CN([C@H](C)CO)C3=O)n(C)n1
cytotoxicity call [1]: inactive
cytotoxicity call [2]: inactive
growth inhibition call [3]: inactive

CC(=O)NCC(=O)OCC(=O)c1ccccc1
cytotoxicity call [1]: inactive
cytotoxicity call [2]: inactive
growth inhibition call [3]: inactive

C[C@H](CO)N1C[C@H](C)[C@H](CN(C)S(=O)(=O)c2ccc(F)cc2)Oc2cc(Br)ccc2S1(=O)=O
cytotoxicity call [1]: inactive
cytotoxicity call [2]: inactive
growth inhibition call [3]: inactive

CCCC(=O)Nc1ccc2c(c1)C(=O)N(C)[C@@H]1CC[C@@H](CC(=O)NCCN3CCCCC3)O[C@@H]1CO2
cytotoxicity call [1]: inactive
cytotoxicity call [2]: inactive
growth inhibition call [3]: inactive

N[C@H]1CCCC[C@@H]1OCc1ccccc1
cytotoxicity call [1]: inactive
cytotoxicity call [2]: inactive
growth inhibition call [3]: inactive

Cc1ccc(S(=O)(=O)N(C)C[C@H]2Oc3cc(Br)ccc3S(=O)(=O)N([C@H](C)CO)C[C@H]2C)cc1
cytotoxicity call [1]: inactive
cytotoxicity call [2]: inactive
growth inhibition call [3]: inactive

COc1ccc(S(=O)(=O)Nc2ccc3c(c2)[C@@H]2C[C@@H](CC(=O)NCC4CC4)O[C@@H](CO)[C@@H]2O3)cc1
cytotoxicity call [1]: inactive
cytotoxicity call [2]: inactive
growth inhibition call [3]: inactive

CC(C)NC(=N)NC(=N)Nc1ccc(Cl)cc1.Cl
cytotoxicity call [1]: inactive
cytotoxicity call [2]: active
growth inhibition call [3]: inactive

C[C@H]1CN([C@@H](C)CO)C(=O)c2cccc(NC(=O)c3cnccn3)c2O[C@@H]1CN(C)C(=O)Nc1ccc(F)cc1
cytotoxicity call [1]: inactive
cytotoxicity call [2]: inactive
growth inhibition call [3]: inactive

Cc1ccc(S(=O)(=O)N(C)C[C@H]2Oc3ccc(NC(=O)Nc4ccc(C(F)(F)F)cc4)cc3CC(=O)N([C@@H](C)CO)C[C@@H]2C)cc1
cytotoxicity call [1]: inactive
cytotoxicity call [2]: active
growth inhibition call [3]: inactive

C[C@H]1CCCCO[C@@H](CN(C)Cc2ccccc2)[C@@H](C)CN([C@@H](C)CO)C(=O)c2cc(NC(=O)c3ccncc3)ccc2O1
cytotoxicity call [1]: inactive
cytotoxicity call [2]: inactive
growth inhibition call [3]: inactive

COc1ccc(NC(=O)Nc2ccc3c(c2)CC(=O)N([C@@H](C)CO)C[C@H](C)[C@H](CN(C)Cc2ccc(Oc4ccccc4)cc2)O3)cc1
cytotoxicity call [1]: inactive
cytotoxicity call [2]: active
growth inhibition call [3]: inactive

O=C(C[C@H]1CC[C@@H]2[C@H](COC[C@H](O)CN2S(=O)(=O)c2ccc(F)cc2)O1)NCCN1CCCCC1
cytotoxicity call [1]: inactive
cytotoxicity call [2]: inactive
growth inhibition call [3]: inactive

O=C(C[C@H]1CC[C@@H](NC(=O)CN2CCOCC2)[C@@H](CO)O1)NCCc1ccccc1
cytotoxicity call [1]: inactive
cytotoxicity call [2]: inactive
growth inhibition call [3]: inactive

N=C(N)NCCC[C@@H](NC(=O)[C@@H](N)Cc1ccc(O)cc1)C(=O)O
cytotoxicity call [1]: inactive
cytotoxicity call [2]: inactive
growth inhibition call [3]: inactive

C[C@@H]1CN([C@@H](C)CO)C(=O)c2ccccc2-c2ccccc2CO[C@H]1CN(C)C(=O)N[C@H](C)c1ccccc1
cytotoxicity call [1]: inactive
cytotoxicity call [2]: inactive
growth inhibition call [3]: inactive
